Reference: PubChem BioAssay AID1345083 (National Center for Advancing Translational Sciences (NCATS), 2018)
Hit rate of the full screen: of about 94,000 compounds, about 6,200 (6.6%) were called active. Inconclusive means that the source gave no clear call. Such entries were picked first, then a sample of the others. Calls come from the whole dose curve; as a rule, active = well fitted inhibition curve with a large enough effect; inconclusive = small, poorly fitted or top-dose-only effect; inactive = flat fitted curve, though single readings scatter. A potency beside an inconclusive call is a rough fit, not a confirmed value.

Experiment: Cytotoxic Profiling in HEK 293 Cell Line of Diverse Libraries Using Quantitative High-Throughput Screening; note: nearly all actives have a fitted effect of over 60% in size
Conditions: HEK 293 viability, ATP luminescence (CellTiter-Glo), 48-72 h; series mostly up to 115 µM
Method in brief: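 Cytotoxicity was scored by loss of ATP-coupled luminescence (CellTiter-Glo) in HEK 293 cells. Compound treatment ran 48 or 72 hr at 37 degree Celsius, 5% CO2, 95% humidity.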
Potency is the fitted concentration of half-maximal effect; tags give direction and shape of the fitted curve.

SMILES | Potency
CCCN1C(=O)[C@@H]2[C@@H](CCN2C(=O)CSCC(=O)O)N(Cc2cccs2)C1=O | inactive
Cc1cccc(CC(=O)N2CCC(Nc3cccn4ncnc34)CC2)c1 | inconclusive: 89.1 µM [inhibitor, single point]
CN1CCC(Oc2nccnc2N2CCc3ccccc32)C1 (stereo not given) | inactive
CN1CC(=O)N(c2ccc(Cl)cc2)Cc2c1ncnc2N1CCCCC1 | inconclusive: 56.2 µM [inhibitor, partial curve, poor fit]
CN(C(=O)CCc1nc2ccccc2[nH]1)C1CCc2nn(C)c(=O)n2CC1 (stereo not given) | inactive
COc1ccc2c3c1CN(C(=O)NCc1ccccc1)CC3=CC(C)(C)CO2 | active: 39.8 µM
Cn1c2c(c3ccccc31)CN(C(=O)Nc1cccc(Br)c1)CC2 | inconclusive: 79.4 µM [inhibitor, partial curve, poor fit]
COc1cccc(CCC(=O)N2C[C@@H]3CC[C@H](C2)N(CC2CCC2)C3=O)c1 | inconclusive: 35.5 µM [inhibitor, partial curve, poor fit]
COc1cccc(N2CC3(COCC2=O)CN(c2ccc(C(F)(F)F)cn2)C3)n1 | inconclusive: 50.1 µM [inhibitor, full curve]
O=C(Cn1nc2c(cc1=O)CCCC2)NCc1nc2ccccc2[nH]1 | inactive
O=C1CCCCC(Cc2ccccc2)(C(=O)N2CCc3ccccc3C2)N1 (stereo not given) | inconclusive: 14.1 µM [inhibitor, full curve, poor fit]
Cc1cc(-c2cnc3[nH]cc(CC(=O)NCc4cccnc4)c3c2)ccn1 | inconclusive: 100 µM [inhibitor, partial curve]
O=C(NCc1cccnc1)c1nc(-c2ccc(F)cc2)c2cnccn12 | inconclusive: 89.1 µM [inhibitor, single point]
N#Cc1ccccc1CN1CCNc2nc(CNCc3ccc4c(c3)OCO4)n(Cc3ccccc3)c2C1=O | inconclusive: 79.4 µM [inhibitor, partial curve]
COc1ccc(NC(=O)c2ccc3c(c2)OCC(=O)N(C)C3)c(F)c1 | inconclusive: 100 µM [inhibitor, partial curve, poor fit]
O=C(NC1CCN(c2cc(-c3ccc(F)cc3)[nH]n2)C1)c1ccc2cc[nH]c2c1 (stereo not given) | inconclusive: 50.1 µM [inhibitor, partial curve, poor fit]
c1cncc(-c2ccnc(NCCc3csc(-c4ccncc4)n3)n2)c1 | inconclusive: 50.1 µM [inhibitor, partial curve, poor fit]
COc1cccc([S+](=O)([O-])N2CCC3(C2)NC(=O)c2ccccc2CO3)c1 (stereo not given) | inconclusive: 100 µM [inhibitor, single point]
Cc1nc(N2CCC(C(=O)NC3CCCCCCC3)CC2)cc(C(F)(F)F)n1 | inconclusive: 22.4 µM [inhibitor, full curve]
CC(C)NC(=O)N1CCC(c2nc(CCOCC3CCOCC3)no2)C1 (stereo not given) | inactive
Cc1sc2ccn(C)c(=O)c2c1C(=O)NCc1ccccc1Cl | inconclusive: 50.1 µM [inhibitor, partial curve, poor fit]
O=C(NC1CCCCCC1)c1ccc2nc(-c3ccccn3)oc2c1 | inconclusive: 100 µM [inhibitor, partial curve]

SMILES | Potency
CC(=O)N1CC2(CCN(Cc3ccc(Cl)cc3)C2)Cc2ccccc21 (stereo not given) | inconclusive: 50.1 µM [inhibitor, partial curve, poor fit]
COc1ccccc1OCCNC(=O)C(C)C1CCOCC1 (stereo not given) | inactive
CC(=O)Nc1ccc(CN2CCN3C(=O)N(C)C[C@H]3C2)cc1 | inactive
Cc1ccc(F)cc1-c1cn(C)c(=O)n2cc(COc3ccccc3)nc12 | inconclusive: 126 µM [inhibitor, single point]
CNC(=O)c1cc(-c2ccc(Cl)nc2)nc2c1cnn2C | inconclusive: 112 µM [inhibitor, partial curve, poor fit]
COc1ccc(C(=O)N2CCC(N3C[C@H](O)C[C@H]3C(=O)NC3CCCCC3)CC2)c(OC)c1 | inactive
CN1CC(=O)N(C2CCC2)Cc2c1ncnc2N1CCCCC1 | inactive
O=C(Nc1ccc([C@@H](O)[C@H]2COCC(=O)N2Cc2ccc(C(F)(F)F)cc2)cc1)C1CCCCC1 | inconclusive: 50.1 µM [inhibitor, partial curve, poor fit]
CC(C)CCN1C[C@@H]2[C@H](C1)N(Cc1ccccc1F)C(=O)C(C)(C)[S+]2(=O)[O-] | inconclusive: 89.1 µM [inhibitor, partial curve]
CN(CC1CCOCC1)S(=O)(=O)c1ccc2c(c1)CCCC2 | inconclusive: 50.1 µM [inhibitor, partial curve, poor fit]
Fc1ccc(-c2ccc3ncc(Nc4ccc5c(c4)OCO5)n3n2)cc1 | active: 79.4 µM
COc1cc(CNC(=O)c2cccc3c2CCN3C(=O)C2CC2)cc(OC)c1 | active: 44.7 µM
Cc1nc(CN2C[C@H](C(=O)N3CCN(c4ccccn4)CC3)C[C@@H]2c2ccc(F)cc2)cs1 | inconclusive: 56.2 µM [inhibitor, partial curve, poor fit]
Cn1cnc2ccc(-c3cccc(C(F)(F)F)c3)nc2c1=O | inconclusive: 70.8 µM [inhibitor, partial curve]
Cc1nc(C)c(C(=O)N2CCC(CCOc3ccccc3)C2)s1 (stereo not given) | inconclusive: 44.7 µM [inhibitor, partial curve, poor fit]
CCN(Cc1ccccc1)C(=O)CCC1CCN(S(=O)(=O)c2ccccc2)CC1 | inconclusive: 50.1 µM [inhibitor, partial curve, poor fit]
O=C(CN1CCCCCC1)N1CC(Oc2ccc(-c3noc(-c4ccccc4)n3)cc2)C1 | inconclusive: 63.1 µM [inhibitor, partial curve, poor fit]
COc1ccccc1-n1c(=O)c(C(=O)N2CCN(C(=O)c3ccccc3C)CC2)nc2cccnc21 | inactive
CCOc1ccccc1CNC(=O)c1noc(-c2ccc3c(c2)OCO3)n1 | inconclusive: 44.7 µM [inhibitor, partial curve, poor fit]
O=C(Nc1ccc(Cl)cc1)c1cc(-c2ccc[nH]2)n[nH]1 | inconclusive: 56.2 µM [inhibitor, partial curve, poor fit]
COc1ccc(-n2nc(C3CCN([S+](=O)([O-])c4ccc(C)cc4)CC3)[nH]c2=O)cc1 | inactive
COc1ccc(-c2nc3cc(C(=O)NCCc4ccccc4)ccc3o2)cn1 | inconclusive: 79.4 µM [inhibitor, partial curve]

SMILES | Potency
O=C(Nc1ccccc1)C1CCN(C(=O)N2CC3CC(C2)[C@H]2CCCC(=O)N2C3)CC1 (stereo not given in full) | inactive
Cn1ncc2c(C(=O)NCCc3ccc(Cl)cc3)cc(-c3cccnc3)nc21 | active: 31.6 µM
O=C(NCCc1ccccc1)c1noc(-c2ccc3c(c2)OCO3)n1 | inconclusive: 89.1 µM [inhibitor, single point]
O=C(NC1CCCN(c2cc(-c3ccc(F)cc3)[nH]n2)C1)c1ccc(Br)o1 (stereo not given) | active: 31.6 µM
COc1ccc(OC)c(-c2cc(-c3ccccc3)nc3c(C)noc23)c1 | inconclusive: 25.1 µM [inhibitor, full curve]
COC(=O)c1ccc2nc(CO[C@H]3CN(Cc4cccc(C#N)c4)C[C@H]3F)[nH]c2c1 | inconclusive: 112 µM [inhibitor, partial curve, poor fit]
CCOC(=O)[C@@H]1[C@@H](O)C(=O)NC12CCN(C(=O)c1ccc(Cl)cc1)CC2 | inactive
O=C(c1nc(-c2ccc(F)cc2)c2cnccn12)N1CCCC1 | inconclusive: 126 µM [inhibitor, single point]
O=C(C1CCCN1C(=O)c1ccc(F)cc1)N1CCC(c2nc3ccncc3[nH]2)CC1 (stereo not given) | inactive
O=C(O)[C@H]1C[C@]2(CCCCNC2=O)N(C(=O)CCc2ccccc2)[C@H]1c1ccco1 | inactive
COC(=O)c1ccccc1Nc1nc(-c2ccccc2)no1 | inactive
O=C(COc1ccccc1)N1CCCC(c2noc(COc3ccccc3F)n2)C1 (stereo not given) | inconclusive: 89.1 µM [inhibitor, single point]
C[C@@H]1CN(C2CCN(C(=O)c3cc[nH]c3)CC2)C[C@H](C)O1 | inactive
CN(Cc1ccncc1)Cc1cccn1C | inconclusive: 126 µM [inhibitor, partial curve, poor fit]
NC(=O)COc1ccc(C(=O)N[C@@H]2CN(Cc3ccccn3)CCC[C@H]2O)cc1 | inconclusive: 100 µM [inhibitor, partial curve, poor fit]
CCc1ccc(N2CC(c3noc(-c4cc(OC)c(OC)c(OC)c4)n3)CC2=O)cc1 (stereo not given) | inconclusive: 50.1 µM [inhibitor, partial curve, poor fit]
Cc1cccc(CNC(=O)CCC2CCN(S(=O)(=O)c3cccc(F)c3)CC2)c1 | inconclusive: 70.8 µM [inhibitor, partial curve, poor fit]
CCOc1ccc(CC(=O)N2CCC[C@H]2c2nc(-c3ccc(C)cc3)no2)cc1 | inconclusive: 20 µM [inhibitor, full curve, poor fit]
O=C(NCCOc1ccccc1)c1nc2c(o1)CCN(Cc1c(F)cccc1F)CC2 | inconclusive: 112 µM [inhibitor, partial curve, poor fit]
COCC(=O)N1CCCN(CCc2ccccc2)c2ccccc21 | active: 35.5 µM
O=C(c1nc(-c2ccc(F)cc2)c2ccccn12)N1CCCC1 | inconclusive: 35.5 µM [inhibitor, partial curve, poor fit]
